# From the supplement of paper PMC4967469
# The IC50 comes from the fitted curve, where viability falls to half of the control; a fit beyond the top or the lowest dose is shown as a bound at that dose. For AUC the same curve is integrated over the 256-fold range of doses and scaled to a fraction; it is 1 without any effect and falls as sensitivity rises. For some assays here: An inferred top dose was calculated from the reported fits. For some assays here: Where an entry number is given, a second screen of the drug exists; the two often differ.
# Key:
# Assay in all cases: Viability of human cancer cell lines after 72 h of drug (GDSC screen)
# [1] = compound: CCCC(=O)OCc1ccc(OC(=O)/C=C(C)/C=C/C=C(C)/C=C/C2=C(C)CCCC2(C)C)cc1 [VNLG/124]; conditions: top dose 5.12 µM; top dose inferred
# Experimental: (§1)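 Human cancer cell lines in 384-well plates, medium with 10% serum, drug for 72 h over a 256-fold dose range (nine 2-fold or five 4-fold steps up to the top dose). Adherent lines were fixed and stained with the nucleic acid dye Syto60, suspension lines read with resazurin; signal relative to control wells, capped at 0 and 100%. One two-parameter sigmoid per drug and line, fitted in a mixed model over all curves with the slope shared within a line.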
# [2] = compound: Cc1ccc(NC(=O)c2ccc(CN3CCN(C)CC3)cc2)cc1Nc1nc(-c2cccnc2)cs1 [Masitinib]; conditions: top dose 20 µM
# Experimental: as §1
# [3] = compound: CN(NC(=O)CC(=O)NN(C)C(=S)c1ccccc1)C(=S)c1ccccc1 [Elesclomol]; conditions: top dose 0.2 µM; top dose inferred
# Experimental: as §1
# [4] = compound: CC/C(=C(\c1ccccc1)c1ccc(OCCN(C)C)cc1)c1ccccc1 [Tamoxifen]; conditions: top dose 5 µM
# Experimental: as §1
# [5] = compound: O=C(Nc1ccc(OC(F)(F)F)cc1)c1sccc1NCc1ccnc2ccccc12 [OSI-930]; conditions: top dose 10.24 µM
# Experimental: as §1
# [6] = compound: O=C(Nc1cccc(Nc2ncc(Br)c(NCCc3cnc[nH]3)n2)c1)N1CCCC1 [BX-912]; conditions: top dose 10.24 µM; top dose inferred
# Experimental: as §1
# [7] = compound: O=S(=O)(O)c1ccc2cc(N=Nc3cc(S(=O)(=O)O)c4cccnc4c3O)ccc2c1 [NSC-87877]; conditions: top dose 16 µM; top dose inferred
# Experimental: as §1
# [8] = compound: O=C(/C=C/c1ccc(CN(CCO)CCc2c[nH]c3ccccc23)cc1)NO [LAQ824]; conditions: top dose 1.024 µM; top dose inferred
# Experimental: as §1
# [9] = compound: Cc1c(N)nc([C@H](CC(N)=O)NC[C@H](N)C(N)=O)nc1C(=O)N[C@H](C(=O)N[C@H](C)[C@@H](O)[C@H](C)C(=O)N[C@H](C(=O)NCCc1nc(-c2nc(C(=O)NCCC[S+](C)C)cs2)cs1)[C@@H](C)O)[C@@H](OC1OC(CO)C(O)C(O)C1OC1OC(CO)C(O)C(OC(N)=O)C1O)c1cnc[nH]1 [Bleomycin]
# Experimental: as §1
# [10] = top dose 50 µM, screen: GDSC drug entry 1378, top dose inferred
# [11] = top dose 64 µM, screen: GDSC drug entry 190
cell line,measurement,setting,value
"NCI-H2405 (lung adenocarcinoma, adherent)",AUC,[1],0.986
same,IC50,[1],> 5.12 µM
same,AUC,[2],0.931
same,IC50,[2],> 20 µM
same,AUC,[3],0.681
same,IC50,[3],0.0425 µM
same,AUC,[4],0.975
same,IC50,[4],> 5 µM
same,AUC,[5],0.95
same,IC50,[5],> 10.2 µM
same,AUC,[6],0.921
same,IC50,[6],> 10.2 µM
same,AUC,[7],0.946
same,IC50,[7],> 16 µM
same,AUC,[8],0.47
same,IC50,[8],0.0524 µM
same,AUC,[9]; [10],0.737
same,IC50,[9]; [10],16.2 µM
same,AUC,[9]; [11],0.518
same,IC50,[9]; [11],4.51 µM
"NCI-H2444 (non-small cell lung carcinoma, adherent)",AUC,[1],0.988
same,IC50,[1],> 5.12 µM
same,AUC,[2],0.978
same,IC50,[2],> 20 µM
same,AUC,[3],0.961
same,IC50,[3],> 0.2 µM
same,AUC,[4],0.987
same,IC50,[4],> 5 µM
same,AUC,[5],0.969
same,IC50,[5],> 10.2 µM
same,AUC,[6],0.982
same,IC50,[6],> 10.2 µM
same,AUC,[7],0.988
same,IC50,[7],> 16 µM
same,AUC,[8],0.551
same,IC50,[8],0.0896 µM
same,AUC,[9]; [10],0.859
same,IC50,[9]; [10],> 50 µM
same,AUC,[9]; [11],0.934
same,IC50,[9]; [11],> 64 µM
"NCI-H2452 (mesothelioma, adherent)",AUC,[1],0.981
same,IC50,[1],> 5.12 µM
same,AUC,[2],0.984
same,IC50,[2],> 20 µM
same,AUC,[3],0.607
same,IC50,[3],0.026 µM
same,AUC,[4],0.958
same,IC50,[4],> 5 µM
same,AUC,[5],0.968
same,IC50,[5],> 10.2 µM
same,AUC,[6],0.984
same,IC50,[6],> 10.2 µM
same,AUC,[7],0.974
same,IC50,[7],> 16 µM
same,AUC,[8],0.672
same,IC50,[8],0.212 µM
same,AUC,[9]; [10],0.497
same,IC50,[9]; [10],3.05 µM
same,AUC,[9]; [11],0.973
same,IC50,[9]; [11],> 64 µM
"NCI-SNU-1 (stomach, suspension)",AUC,[1],0.97
same,IC50,[1],> 5.12 µM
same,AUC,[2],0.871
same,IC50,[2],19.9 µM
same,AUC,[3],0.968
same,IC50,[3],> 0.2 µM
same,AUC,[4],0.979
same,IC50,[4],> 5 µM
same,AUC,[5],0.969
same,IC50,[5],> 10.2 µM
same,AUC,[6],0.818
same,IC50,[6],6.04 µM
same,AUC,[7],0.982
same,IC50,[7],> 16 µM
same,AUC,[8],0.548
same,IC50,[8],0.0868 µM
same,AUC,[9]; [10],0.912
same,IC50,[9]; [10],> 50 µM
same,AUC,[9]; [11],0.473
same,IC50,[9]; [11],3.36 µM
"NKM-1 (acute myeloid leukaemia, suspension)",AUC,[1],0.972
same,IC50,[1],> 5.12 µM
same,AUC,[2],0.834
same,IC50,[2],13.6 µM
same,AUC,[3],0.473
same,IC50,[3],0.0105 µM
same,AUC,[4],0.97
same,IC50,[4],> 5 µM
same,AUC,[5],0.657
same,IC50,[5],1.77 µM
same,AUC,[6],0.202
same,IC50,[6],0.0816 µM
same,AUC,[7],0.98
same,IC50,[7],> 16 µM
same,AUC,[8],0.246
same,IC50,[8],0.0116 µM
same,AUC,[9]; [10],0.582
same,IC50,[9]; [10],5.28 µM
same,AUC,[9]; [11],0.051
same,IC50,[9]; [11],< 0.25 µM
"NU-DUL-1 (B-cell lymphoma, suspension)",AUC,[1],0.848
same,IC50,[1],2.74 µM
same,AUC,[2],0.849
same,IC50,[2],10.7 µM
same,AUC,[3],0.555
same,IC50,[3],0.0171 µM
same,AUC,[4],0.99
same,IC50,[4],> 5 µM
same,AUC,[5],0.944
same,IC50,[5],> 10.2 µM
same,AUC,[6],0.394
same,IC50,[6],0.349 µM
same,AUC,[7],0.987
same,IC50,[7],> 16 µM
same,AUC,[8],0.233
same,IC50,[8],0.0132 µM
same,AUC,[9]; [10],0.947
same,IC50,[9]; [10],> 50 µM
same,AUC,[9]; [11],0.464
same,IC50,[9]; [11],3.25 µM
"OAW-42 (ovary, adherent)",AUC,[1],0.975
same,IC50,[1],> 5.12 µM
same,AUC,[2],0.969
same,IC50,[2],> 20 µM
same,AUC,[3],0.756
same,IC50,[3],0.0737 µM
same,AUC,[4],0.943
same,IC50,[4],> 5 µM
same,AUC,[5],0.947
same,IC50,[5],> 10.2 µM
same,AUC,[6],0.863
same,IC50,[6],10.2 µM
same,AUC,[7],0.92
same,IC50,[7],> 16 µM
same,AUC,[8],0.414
same,IC50,[8],0.0365 µM
same,AUC,[9]; [10],0.751
same,IC50,[9]; [10],17.7 µM
same,AUC,[9]; [11],0.201
same,IC50,[9]; [11],0.477 µM
"OE19 (oesophagus, adherent)",AUC,[1],0.981
same,IC50,[1],> 5.12 µM
same,AUC,[2],0.942
same,IC50,[2],> 20 µM
same,AUC,[3],0.708
same,IC50,[3],0.0526 µM
same,AUC,[4],0.975
same,IC50,[4],> 5 µM
same,AUC,[5],0.975
same,IC50,[5],> 10.2 µM
same,AUC,[6],0.986
same,IC50,[6],> 10.2 µM
same,AUC,[7],0.976
same,IC50,[7],> 16 µM
same,AUC,[8],0.382
same,IC50,[8],0.029 µM
same,AUC,[9]; [10],0.844
same,IC50,[9]; [10],43 µM
same,AUC,[9]; [11],0.417
same,IC50,[9]; [11],2.3 µM
"OE33 (oesophagus, adherent)",AUC,[1],0.983
same,IC50,[1],> 5.12 µM
same,AUC,[2],0.887
same,IC50,[2],> 20 µM
same,AUC,[3],0.981
same,IC50,[3],> 0.2 µM
same,AUC,[4],0.967
same,IC50,[4],> 5 µM
same,AUC,[5],0.984
same,IC50,[5],> 10.2 µM
same,AUC,[6],0.984
same,IC50,[6],> 10.2 µM
same,AUC,[7],0.984
same,IC50,[7],> 16 µM
same,AUC,[8],0.459
same,IC50,[8],0.0484 µM
same,AUC,[9]; [10],0.861
same,IC50,[9]; [10],> 50 µM
same,AUC,[9]; [11],0.411
same,IC50,[9]; [11],2.17 µM
"OMC-1 (cervix, adherent)",AUC,[1],0.974
same,IC50,[1],> 5.12 µM
same,AUC,[2],0.941
same,IC50,[2],> 20 µM
same,AUC,[3],0.766
same,AUC,[4],0.987
same,IC50,[4],> 5 µM
same,AUC,[5],0.981
same,IC50,[5],> 10.2 µM
same,AUC,[6],0.942
same,IC50,[6],> 10.2 µM
same,AUC,[7],0.988
same,IC50,[7],> 16 µM
same,AUC,[8],0.479
same,IC50,[8],0.0559 µM
same,AUC,[9]; [10],0.86
same,IC50,[9]; [10],44.9 µM
same,AUC,[9]; [11],0.64
same,IC50,[9]; [11],9.97 µM
"OPM-2 (myeloma, suspension)",AUC,[1],0.993
same,IC50,[1],> 5.12 µM
same,AUC,[2],0.877
same,IC50,[2],13.9 µM
same,AUC,[3],0.955
same,IC50,[3],> 0.2 µM
same,AUC,[4],0.993
same,IC50,[4],> 5 µM
same,AUC,[5],0.968
same,IC50,[5],> 10.2 µM
same,AUC,[6],0.581
same,IC50,[6],1.02 µM
same,AUC,[7],0.991
same,IC50,[7],> 16 µM
same,AUC,[8],0.359
same,IC50,[8],0.0282 µM
same,AUC,[9]; [10],0.983
same,IC50,[9]; [10],> 50 µM
same,AUC,[9]; [11],0.919
same,IC50,[9]; [11],> 64 µM
"OSC-20 (head and neck, adherent)",AUC,[1],0.974
same,IC50,[1],> 5.12 µM
same,AUC,[2],0.872
same,IC50,[2],> 20 µM
same,AUC,[3],0.793
same,IC50,[3],0.111 µM
same,AUC,[4],0.98
same,IC50,[4],> 5 µM
same,AUC,[5],0.968
same,IC50,[5],> 10.2 µM
same,AUC,[6],0.881
same,IC50,[6],> 10.2 µM
same,AUC,[7],0.967
same,IC50,[7],> 16 µM
same,AUC,[8],0.519
same,IC50,[8],0.0727 µM
same,AUC,[9]; [10],0.418
same,IC50,[9]; [10],1.78 µM
same,AUC,[9]; [11],0.607
same,IC50,[9]; [11],8.33 µM
